Data reported in PubChem BioAssay AID924 (National Center for Advancing Translational Sciences (NCATS), 2007).
Hit rate of the full screen: of about 130,000 compounds, about 1,200 (0.92%) were called active. The inconclusive results got no clear call from the source; some entries with a clear call stand among them for comparison. Calls follow the shape of the dose curve; as a rule, active = well fitted cell-killing curve with a large enough effect; inconclusive = small, poorly fitted or top-dose-only effect; inactive = no such curve, though single readings can be large or run the other way. Potencies of inconclusive entries are doubtful fits and often do not repeat.
Potency is read from the fitted curve at half-maximal effect; tags tell the direction and shape of the fitted curve.

Assay: qHTS Screen for Compounds that Selectively Target Cancer Cells with p53 Mutations: Cytotoxicity of p53ts Cells at the Permissive Temperature; also: nearly all actives have a fitted effect of over 55% in size;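 as to activity change, negative = cytotoxicity: 0% = DMSO and -100% = full killing by reference compound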
Details: H1299-p53A138V at 32C, ATP luminescence viability, 24 h; activity change, negative = cytotoxicity: at 46.1 µM (top of the series)
How it was run: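 Viability by ATPlite luminescence after 24 h compound treatment (up to 46 uM) at the permissive 32C. Cells are H1299 carrying p53 A138V. Scale runs from DMSO basal to 100 uM tamoxifen as full kill; AC50 from Hill fits.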
For Cc1ccc2onc(CC(=O)N(C)c3ccccc3)c2c1, the Potency was inconclusive: 20 µM [cytotoxic, partial curve, poor fit]. In the case of O=C(O)CCCCn1ccc(=O)[nH]c1=O, the activity change, negative = cytotoxicity is reported as inactive: 2.5% [at 9.22 µM]. In the case of CCOC(=O)c1ccc(NC(=O)CSc2nc3c(c(=O)n2C)SC(C)C3)cc1 (stereo not given), the Potency is reported as active: 7.94 µM. For CCN1C(=O)/C(=C2/Sc3ccc(OC)cc3N2C)SC1=Nc1cccc(O)c1, the Potency was inconclusive: 10 µM [cytotoxic, partial curve]. In the case of CCCCCOc1ccc(/C=C/C(=O)Nc2sc(C(C)=O)c(C)c2C(=O)OCC)cc1OC, the “activity change, negative = cytotoxicity” value is reported as inactive: -3.41%. In the case of O=C(N[C@@H](Cc1ccccc1)C(=O)O)c1ccccc1, the “activity change, negative = cytotoxicity” value is reported as inactive: 7.26%. With CCOC(=O)c1cc(-c2ccccc2)n(CCC(=O)Nc2ccc(Cl)c(C(F)(F)F)c2)c1C the Potency was inconclusive: 35.5 µM [cytotoxic, single point]. With CCc1cc2cc3c(cc2nc1SCC(=O)Nc1cc(C)on1)OCO3 the Potency was inconclusive: 31.6 µM [cytotoxic, single point]. With O=C(Nc1ccc(N2CCCC2)cc1)c1ccc(Br)o1 the Potency was inconclusive: 2.51 µM [cytotoxic, full curve, poor fit]. For CCOC(=O)c1c(-c2ccccc2)csc1NC(=O)c1nc(S(=O)(=O)CC)ncc1Cl, the Potency was inconclusive: 20 µM [cytotoxic, single point]. In the case of COc1ccccc1-c1cc(C(F)(F)F)nc(S(=O)(=O)CCCC(=O)Nc2cc(OC)c(OC)c(OC)c2)n1, the Potency is reported as active: 6.31 µM. For CCOC(=O)c1ccc(N2C(=O)c3n[nH]c(-c4cccs4)c3C2c2ccc(C(C)C)cc2)cc1 (stereo not given), the Potency was inconclusive: 31.6 µM [cytotoxic, single point]. With CCC(C)c1ccc2oc(-c3ccc(NC(=O)c4ncn[nH]4)cc3)nc2c1 (stereo not given) the “activity change, negative = cytotoxicity” value was inactive: 19.7%. For CC(=O)Nc1ccc(S(=O)(=O)NCc2cn3ccsc3n2)cc1, the Potency was inconclusive: 10 µM [cytotoxic, partial curve, poor fit]. In the case of CCS(=O)(=O)c1ncc(Cl)c(C(=O)N2CCN(c3cccc(Cl)c3)CC2)n1, the Potency is reported as active: 12.6 µM. With COc1ccc(NC(=O)CSc2c3c(nc4ccccc24)CCC3)c(OC)c1 the Potency was inconclusive: 31.6 µM [cytotoxic, single point]. For CCOC(=O)c1ccc(NC(=O)C(C)N(c2ccc(OCC)cc2)S(C)(=O)=O)cc1 (stereo not given), the “activity change, negative = cytotoxicity” value was inactive: 1.93%. For Cc1cc(N2CCN(C)CC2)nc2ccc(NC(=O)c3ccc4c(c3)OCO4)cc12, the Potency was inconclusive: 15.8 µM [cytotoxic, single point]. In the case of O=C(Nc1cc2ccc(O)cc2oc1=O)c1ccc(F)cc1, the Potency is reported as inconclusive: 2 µM [cytotoxic, full curve]. For COc1ccc(CCNC(=O)CCCCn2c(=O)c3ccccc3n(Cc3ccc(Cl)cc3)c2=O)cc1OC, the “activity change, negative = cytotoxicity” value was inactive: -9.5%. For COc1cccc(CNC(=O)c2oc3ccc4c(c3c2C)C(=O)CC(C)(C)O4)c1OC, the Potency was inconclusive: 12.6 µM [cytotoxic, single point]. For O=C(Nc1ccc(F)cc1)C1CCCN(c2ncnc3c2nc2n3CCCCC2)C1 (stereo not given), the Potency was inconclusive: 0.01 µM [cytotoxic, full curve, poor fit]. For Cc1ccc2c(c1)C(=O)C(=O)N2Cc1ccc(OC(C)C)cc1, the Potency was inconclusive: 31.6 µM [cytotoxic, single point]. For CC1CCCCN1c1nc(-c2ccncc2)nc2ccccc12 (stereo not given), the “activity change, negative = cytotoxicity” value was inactive: 10.5%. For O=C(NCCCN1CCN(c2ccc(F)cc2)CC1)c1sc2ncccc2c1-n1cccc1, the “activity change, negative = cytotoxicity” value was inactive: -12%. For CCOc1ccc2cc(C#N)c(SCC(=O)OC)nc2c1, the Potency was inconclusive: 5.01 µM [cytotoxic, partial curve]. In the case of COc1ccc(-c2cc(N)n(S(=O)(=O)c3c(F)c(F)c(F)c(F)c3F)n2)cc1OC, the Potency is reported as inconclusive: 31.6 µM [cytotoxic, single point]. For COc1ccc(C2CC(=O)c3c(C)nc(N4CCN(C=O)CC4)nc3C2)c(OC)c1 (stereo not given), the “activity change, negative = cytotoxicity” value was inactive: -1.49%. For Cc1sc2nc(SCC(=O)c3cc(C)n(CC4CCCO4)c3C)n(C(C)C)c(=O)c2c1C (stereo not given), the Potency was inconclusive: 7.94 µM [cytotoxic, partial curve]. For N#CCCCCn1c(-c2cncs2)nc2ccccc21, the Potency was inconclusive: 31.6 µM [cytotoxic, single point]. With COc1ccccc1NC(=O)CN1C(=O)CC(c2ccc(C)c(C)c2)=Nc2ccccc21 the Potency was inconclusive: 25.1 µM [cytotoxic, single point]. For COc1ccccc1CCNC(=O)Cc1c(C)c2cc3c(C(C)(C)C)coc3c(C)c2oc1=O, the “activity change, negative = cytotoxicity” value was inactive: -3.12%. In the case of COc1ccccc1CNc1nc(-c2cccnc2)nc2ccccc12, the Potency is reported as inconclusive: 25.1 µM [cytotoxic, single point]. With CCC(Sc1nc2ccccc2c2nc(CCc3c(C)n[nH]c3C)nn12)C(=O)Nc1ccc(OC)cc1 (stereo not given) the Potency was inconclusive: 31.6 µM [cytotoxic, single point]. With COc1ccc(Cl)cc1NC(=O)CSc1c2c(nc3ccccc13)CCC2 the Potency was inconclusive: 35.5 µM [cytotoxic, single point]. For COc1ccc(-n2c(C)nc3c(cnn3-c3ccc(C)c(C)c3)c2=O)cc1, the “activity change, negative = cytotoxicity” value was inactive: 11.6%. In the case of COc1cc(C/C=C/c2ccccc2)c(OC)cc1O, the Potency is reported as inconclusive: 25.1 µM [cytotoxic, single point]. With O=C(NCCCn1ccnc1)c1cn(-c2ccccc2)nc1-c1ccccc1 the Potency was inconclusive: 12.6 µM [cytotoxic, single point]. For C/C(=N\NC(=O)c1ccccc1F)c1ccc2c(c1)Nc1ccccc1S2, the Potency was inconclusive: 10 µM [cytotoxic, partial curve, poor fit]. In the case of COc1ccc(C(=O)c2no[n+]([O-])c2C(=O)c2ccc(OC)cc2)cc1, the Potency is reported as inconclusive: 31.6 µM [cytotoxic, single point]. In the case of CCCCC(=O)Nc1ccc2c(c1)nc1n2CCOC1, the Potency is reported as inconclusive: 10 µM [cytotoxic, partial curve]. With Cc1nn(-c2ccc(N3CCCCC3)nn2)c(C)c1CCC(=O)Nc1cccc(F)c1 the Potency was inconclusive: 10 µM [cytotoxic, partial curve]. With N#C/C(=N\Nc1ccccc1F)C(=N)N1CCCCC1 the Potency was inconclusive: 17.8 µM [cytotoxic, partial curve]. For CC(C)c1ccc(NC(=O)CN(C)S(=O)(=O)c2ccc3c(c2)n(C)c(=O)c(=O)n3C)cc1, the “activity change, negative = cytotoxicity” value was inactive: -11.7%. For COC(=O)c1ccccc1NC(=O)CSc1c2c(nc3ccc(Cl)cc13)CCCC2, the Potency was inconclusive: 31.6 µM [cytotoxic, single point]. With O=C(C1CC1)N1CCc2cc(Br)cc(S(=O)(=O)Nc3ccc(C(F)(F)F)cc3)c21 the Potency was inconclusive: 15.8 µM [cytotoxic, single point]. In the case of CCOc1ccc(-n2nc3ccc(NC(=O)COc4ccccc4C)cc3n2)cc1, the Potency is reported as inconclusive: 10 µM [cytotoxic, partial curve]. With Cc1ccc(C(C)C)c(OCc2ccc(C(=O)Nc3ccc(S(N)(=O)=O)cc3C)o2)c1 the Potency was inconclusive: 31.6 µM [cytotoxic, single point]. In the case of CCOC(=O)c1ccc2nc(NC(=O)c3ccco3)sc2c1, the Potency is reported as inconclusive: 10 µM [cytotoxic, partial curve]. For CC(C)c1ccc(NC(=O)c2cc(S(=O)(=O)NC3CCCCC3)ccc2F)cc1, the Potency was inconclusive: 12.6 µM [cytotoxic, partial curve]. For COc1ccc(/C=C/C(=O)Nc2cccc(F)c2)cc1, the Potency was active: 10 µM. With COc1ccc(CNC(=O)C2CCN(c3nnc(C)c4c(C)n(-c5ccc(C)cc5)nc34)CC2)cc1 the Potency was inconclusive: 25.1 µM [cytotoxic, single point]. With Cc1cc(=Nc2ccc3c(c2)c(N)cc(C)[n+]3C)nc(N)n1C the activity change, negative = cytotoxicity was inactive: 2.9% [at 9.22 µM]. In the case of CCCCOc1ccc(-c2nnn(CCC(=O)N3CCOCC3)n2)cc1, the Potency is reported as inconclusive: 12.6 µM [cytotoxic, single point]. With O=C(CCS(=O)(=O)c1nc(-c2ccc3c(c2)OCO3)cc(C(F)(F)F)n1)Nc1ccccc1C(F)(F)F the Potency was inconclusive: 31.6 µM [cytotoxic, single point]. In the case of CC1=C(C(=O)Nc2ccc(C)cc2C)C(c2cc(Br)ccc2F)n2ncc(C(=O)Nc3ccc(C)cc3)c2N1 (stereo not given), the Potency is reported as inconclusive: 15.8 µM [cytotoxic, partial curve]. For Cn1c(=O)c2c(-c3ccccc3)n3c(c2n(C)c1=O)C(c1cccc([N+](=O)[O-])c1)Nc1ccccc1-3 (stereo not given), the “activity change, negative = cytotoxicity” value was inactive: 2.76%. In the case of Cc1cccc(C)c1NC(=O)Cn1c(=O)n(CCC(=O)NCc2ccc3c(c2)OCO3)c(=O)c2sccc21, the “activity change, negative = cytotoxicity” value is reported as inactive: 9.03%. In the case of CCOc1ccccc1Nc1nc(-c2cccc(Cl)c2)c2c(n1)-c1ccccc1OC2, the Potency is reported as inconclusive: 11.2 µM [cytotoxic, partial curve]. In the case of CCc1nnc(SCC(=O)N(C)c2ccccc2)c2cc3sccc3n12, the “activity change, negative = cytotoxicity” value is reported as inactive: -0.988%. With Cc1cccc(NC(=O)c2sc(C)nc2C)c1 the Potency was inconclusive: 11.2 µM [cytotoxic, partial curve]. With COc1ccc(-n2c(C)cc(/C=N/Nc3nnc(C)n3N)c2C)cc1 the Potency was inconclusive: 10 µM [cytotoxic, partial curve, poor fit]. For COc1ccc(-c2ccc(CNc3ccc4[nH]c(=O)[nH]c4c3)o2)cc1Cl, the Potency was inconclusive: 3.16 µM [cytotoxic, single point]. In the case of COc1ccc(NC(=O)c2ccc3c(=O)n4nc(Nc5cc(C)ccc5C)sc4nc3c2)cc1, the Potency is reported as inconclusive: 15.8 µM [cytotoxic, single point]. In the case of Cn1c(C(=O)NCCCN2CCN(c3ccccc3F)CC2)cc2c(=O)n(C)c3ccccc3c21, the Potency is reported as inconclusive: 31.6 µM [cytotoxic, single point].
